Test results from PubChem BioAssay AID1347120 (National Center for Advancing Translational Sciences (NCATS), 2019).
About 930 (0.24%) of roughly 390,000 compounds were called active. Inconclusive results, whose numbers are uncertain, are shown with a selection of clear calls. Calls come from the whole dose curve; as a rule, active = well fitted activation curve with a large enough effect; inconclusive = small, poorly fitted or top-dose-only effect; inactive = no such curve, though single readings can be large or run the other way. Potencies beside an inconclusive call are fits to weak or partial responses and may not hold up.

experiment: qHTS for Suppressors of FUS Proteinopathy: Primary screen using FUS-linked yeast assay; note: nearly all actives have a fitted effect of over 55% in size; settings: S. cerevisiae FUS-expressing, OD600, 24 h; Potency: growth rescue; series mostly up to 76.6 µM
Method in brief: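 FUS-expressing yeast, raffinose-pregrown, induced in 2% galactose minimal medium at OD 0.005; compounds in a dilution series, 24hr at 30C. Growth restoration read as absorbance at 600 nm. CP55940 positive control, DMSO negative.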
Potency is the fitted concentration of half-maximal effect; tags give direction and shape of the fitted curve.

| Compound | Potency |
| --- | --- |
| COc1ccc(Cc2nn3c(-c4ccccc4OC)nnc3s2)cc1 | inactive |
| COc1ccccc1NC(=O)Cn1nnc(C(=O)Nc2ccccc2Br)c1N | inactive |
| CCC[C@H]1[C@@H](OC(=O)Oc2ccc([N+](=O)[O-])cc2)CC[C@@]23CCCN2C(=O)CCC[C@@H]13 | inconclusive: 7.94 µM [activator, full curve] |
| COc1ccc(N(CC(=O)NCCSCc2ccc(Cl)cc2)S(C)(=O)=O)cc1Cl | inconclusive: 20 µM [activator, single point] |
| Cc1ccc(CNC(=O)OC(C)(C)C)c(/C=C/S(=O)(=O)NC2CCCC2)c1 | inactive |
| CCOC(=O)c1c(NC(NC(C)=O)C(Cl)(Cl)Cl)sc2c1CCCC2 (configuration not stated) | inconclusive: 31.6 µM [activator, partial curve, poor fit] |
| COC(=O)[C@@]12CCCCN1[C@H](c1ccc(-c3ccc(F)cc3)c(OC)c1)[C@@H]1C(=O)N(C)C(=O)[C@@H]12 | inactive |
| CCC(C)(C)n1nnnc1C(C(C)C)N(CCN1CCOCC1)Cc1cc2cccc(C)c2[nH]c1=O (configuration not stated) | inconclusive: 11.2 µM [activator, single point] |
| CC(=O)Nc1cc(-c2ccccc2Cl)cn2c(-c3ccc(S(C)(=O)=O)cc3)cnc12 | inconclusive: 35.5 µM [activator, single point] |
| COc1ccc(CCNC(=O)c2ccc(NC(=O)CC3SC(N4CCCCC4)=NC3=O)cc2)cc1 (configuration not stated) | inconclusive: 2.51 µM [activator, full curve] |
| Cc1nc2c(-c3ccccc3)c(C)nn2c(C)c1CCC(=O)NCc1ccc(F)cc1 | inactive |
| COc1ccc(C(C)(NC(C)=O)c2nc(-c3ccc(F)c(Cl)c3)cs2)cc1 (configuration not stated) | inconclusive: 22.4 µM [activator, single point] |
| Cc1ccccc1S(=O)(=O)N1C[C@H]2CON(C)[C@H]2C[C@H]1c1cccc(Oc2ccccc2)c1 | inconclusive: 12.6 µM [activator, partial curve, poor fit] |
| Cn1c(=O)oc2cc(S(=O)(=O)Nc3ccccc3O)ccc21 | inconclusive: 2.24 µM [activator, full curve, poor fit] |
| S=C(NCCN1CCOCC1)N1CCN(c2cccc(Cl)c2)CC1 | inactive |
| COc1ccc2oc(=O)c(-c3csc(Nc4ccc(O)cc4)n3)cc2c1 | inconclusive: 8.91 µM [activator, partial curve] |
| COC(=O)N1[C@H](C)C=C[C@]1(Cc1ccccc1)C(=O)NCCCNc1ncc(C(F)(F)F)cc1Cl | inconclusive: 31.6 µM [activator, single point] |
| Cc1ccc(CNC(=O)c2ccc(N3CCC4(CC3)CC(c3cccc(Br)c3)=NO4)c([N+](=O)[O-])c2)cc1 | inconclusive: 17.8 µM [activator, partial curve] |
| CCOC(=O)[C@@H]1[C@H]2COc3ccccc3[C@@H]2N2C(=O)N(c3ccc(Br)cc3)C(=O)[C@@]12C | inconclusive: 28.2 µM [activator, single point] |

| Compound | Potency |
| --- | --- |
| CCOC(=O)c1ccccc1N1C(=O)C2Sc3[nH]c(=O)sc3C(/C=C/c3ccccc3)C2C1=O (configuration not stated) | inconclusive: 15.8 µM [activator, partial curve, poor fit] |
| CCN(Cc1ccccc1)c1ccc(/C=N/NC(=O)c2cccc(S(=O)(=O)N3CCOCC3)c2)cc1 | inconclusive: 11.2 µM [activator, partial curve] |
| COC(=O)c1scc(-c2ccc(C)cc2)c1S(=O)(=O)Nc1ccc(N(C)C)cc1 | inconclusive: 35.5 µM [activator, partial curve, poor fit] |
| O=C(CC1CCOCC1)Nc1ccc(Cl)c(Cl)c1 | inconclusive: 17.8 µM [activator, partial curve, poor fit] |
| Cc1cc2ccccc2n1-c1ccc(C(=O)N2CCC(C(=O)NCc3ccccc3Cl)CC2)s1 | inconclusive: 14.1 µM [activator, partial curve] |
| C[C@@H]1COC(=O)[C@H](Cc2ccc(F)cc2)CC/C=C/C[C@@H](CC(=O)N[C@@H](CO)Cc2ccccc2)C(=O)N1 | inconclusive: 14.1 µM [activator, partial curve] |
| Cc1ccc([C@H](C)NC(=O)C2=C(N)N(S(=O)(=O)c3ccc(C)cc3)C(C(=O)c3ccccc3)C2c2ccccc2Cl)cc1 (some centres not stated) | inconclusive: 22.4 µM [activator, partial curve] |
| CCOC(=O)c1c(C)[nH]c(C2=NNC(=Nc3ccccc3OC)SC2)c1C | inconclusive: 39.8 µM [activator, partial curve, poor fit] |
| CCN(CCCNC(=O)CCc1nc(-c2ccc(OC)cc2)no1)c1cccc(C)c1 | inconclusive: 11.2 µM [activator, partial curve, poor fit] |
| Cc1n[nH]c(C)c1S(=O)(=O)N(CC(=O)N1CCc2ccccc21)c1ccc(C(C)C)cc1 | inconclusive: 10 µM [activator, full curve] |
| COc1ccccc1CNC(=O)c1ccc2c(c1)CCN2S(=O)(=O)c1ccccc1 | inconclusive: 39.8 µM [activator, single point] |
| O=C(/C=C\c1ccc2c(c1)OCO2)NC1CC(=O)N(c2cccc(F)c2)C1 (configuration not stated) | inactive |
| COc1ccc(C2=NN(c3ccc(C(=O)O)cc3)C(c3ccc(OC)c(OC)c3)C2)cc1 (configuration not stated) | inconclusive: 20 µM [activator, partial curve, poor fit] |
| Cn1c(C(=O)NCc2ccco2)cc2c(=O)[nH]c3ccccc3c21 | inconclusive: 0.891 µM [activator, full curve, poor fit] |
| Cc1onc(-c2ccccc2)c1-c1ccnc(N)n1 | inactive |
| C[C@H](CO)N1C[C@H](C)[C@H](CN(C)S(=O)(=O)c2ccc(Cl)cc2)OCc2ccccc2-c2c(n(C)c3ccccc23)C1=O | inconclusive: 14.1 µM [activator, partial curve, poor fit] |
| CCCCC(=O)N(C)c1c(CC)nc2c(OCC(=O)c3ccc(Cl)cc3Cl)cccn12 | active: 31.6 µM |
| COc1ccc(/C=C/C=C2\NC(=S)NC2=O)cc1 | inactive |
| CC1(Cc2ccccc2Cl)C(=O)Nc2c(Cl)cccc21 (configuration not stated) | inactive |

| Compound | Potency |
| --- | --- |
| CCOC(=O)[C@H]1[C@H]2COc3cc(OC)ccc3[C@@H]2N2C(=O)CN(Cc3ccc(C)cc3)C(=O)[C@@]12C | inconclusive: 22.4 µM [activator, partial curve] |
| Cc1ccc(Cl)cc1S(=O)(=O)N1CCC(C(=O)NC2CCN(Cc3ccccc3)CC2)CC1 | inactive |
| CCOC(=O)[C@]12CCCCC/C=C\1N(Cc1ccc(OC)cc1)C(=O)[C@H]2CC(=O)NCc1ccc(C)o1 | inconclusive: 25.1 µM [activator, single point] |
| CCC(CC)COC(=O)C(C#N)c1nc2ccccc2nc1N1CCN(CC)CC1 (configuration not stated) | inconclusive: 39.8 µM [activator, partial curve, poor fit] |
| COc1cc(/C=C/C(=O)O)cc(S(=O)(=O)N(CC(C)C)CC(C)C)c1OC | inconclusive: 44.7 µM [activator, single point] |
| Cc1noc(C)c1COc1ccc(C(=O)OCC(=O)N2CC3(C)CC2CC(C)(C)C3)cc1 (configuration not stated) | inconclusive: 25.1 µM [activator, partial curve, poor fit] |
| COc1ccc(S(=O)(=O)N(CC(=O)Nc2cccc(C(F)(F)F)c2)c2ccc(C)cc2)cc1 | inconclusive: 7.94 µM [activator, partial curve] |
| CCN(CC)S(=O)(=O)c1cc(NC(=O)COC(=O)c2ccc(NC(=O)CC#N)cc2)ccc1C | inconclusive: 12.6 µM [activator, partial curve] |
| CS(=O)(=O)N1Cc2ccccc2CC1C(=O)OCC(=O)Nc1ccc2ccccc2c1 (configuration not stated) | inconclusive: 11.2 µM [activator, partial curve, poor fit] |
| C[C@H](CO)N1C[C@H](C)[C@@H](CN(C)S(=O)(=O)c2cccs2)Oc2ccc(NS(=O)(=O)c3ccccc3)cc2CC1=O | inconclusive: 17.8 µM [activator, single point] |
| COc1ccc(-c2nc(C(=O)Nc3ccc(C(C)=O)cc3)nn2-c2cccc(Cl)c2)cc1 | inconclusive: 28.2 µM [activator, single point] |
| COC(=O)[C@]12C[C@H](CC(=O)NCc3cccc(C(F)(F)F)c3)C(=O)N(Cc3cccc4ccccc34)C1=C[C@H](C1CCCC1)O[C@@H]2C | inconclusive: 8.91 µM [activator, partial curve] |
| COc1ccc(CCNC(=O)C(=O)Nc2ccc(C)cc2)cc1OC | inactive |
| COc1ccc(N2CCN(S(=O)(=O)c3c(C)[nH]c(=O)[nH]c3=O)CC2)cc1 | inactive |
| CCCCC(=O)NC(c1ccc(N(CC)CC)cc1)c1ccc2cccnc2c1O (configuration not stated) | inconclusive: 14.1 µM [activator, partial curve, poor fit] |
| COc1ccc(C2c3[nH]c4ccccc4c3CCN2C(=O)Cc2nonc2C)c(F)c1 (configuration not stated) | inconclusive: 25.1 µM [activator, single point] |
| C=CCSc1nc2c(c(=O)[nH]1)C(C(C)C)C(C#N)=C(N)O2 (configuration not stated) | inconclusive: 5.01 µM [activator, full curve] |
| C=C(C)CC1Nc2ccccc2NC1CC(=C)C (configuration not stated) | inconclusive: 31.6 µM [activator, partial curve, poor fit] |
| COc1ccc(C=NNC(=S)NN=Cc2ccc(OC)c(OC)c2)cc1OC | inconclusive: 14.1 µM [activator, partial curve, poor fit] |
